From PubChem BioAssay AID1345082 (National Center for Advancing Translational Sciences (NCATS), 2018)
Screen size: about 94,000 compounds; about 4,000 (4.3%) were called active. Inconclusive means that the source gave no clear call. Such entries were picked first, then a sample of the others. Calls follow the shape of the dose curve; as a rule, active = well fitted inhibition curve with a large enough effect; inconclusive = small, poorly fitted or top-dose-only effect; inactive = no such curve, though single readings can be large or run the other way. Where the call is inconclusive, the potency comes from a doubtful curve fit.

Test: Cytotoxic Profiling in NIH 3T3 Cell Line of Diverse Libraries Using Quantitative High-Throughput Screening; also: nearly all actives have a fitted effect of over 55% in size
Settings: NIH 3T3 viability, CellTiter-Glo ATP luminescence, 48-72 h; activity change, negative = cytotoxicity: at 96.7 µM (top of the series) unless noted; series mostly up to 96.7 µM
In short: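 Cytotoxicity was measured by CellTiter-Glo ATP luminescence after 48 or 72 h compound exposure at 37 °C. Mouse NIH 3T3 fibroblasts were seeded at 400 cells/well and dosed by 23 nL pin transfer.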
% is scaled to controls: 0 for no effect and ±100 for the full control effect; potency is read from the fitted curve at half-maximal effect; tags tell the direction and shape of the fitted curve.

| SMILES | Potency | activity change, negative = cytotoxicity | outcome |
| --- | --- | --- | --- |
| CCNC(=O)CCc1c(C)nn(-c2ccc(F)cc2)c1Oc1ccccc1C | inconclusive: 50.1 µM [inhibitor, partial curve, poor fit] | – | – |
| Cc1nnc2ccc(N3CCN(C(=O)c4ccccc4F)CC3)nn12 | – | inactive: -28.2% | – |
| CCOC(=O)CN1Cc2ccccc2N(CC(O)COc2ccc(OC)cc2)CCC1=O (stereo unspecified) | – | inactive: -28.2% | – |
| COc1ccccc1-c1cc(-c2ccc(N3CCOCC3)cc2)c2onc(C)c2n1 | inconclusive: 56.2 µM [inhibitor, partial curve, poor fit] | – | – |
| CN(C)CCNC(=O)c1ccnc(-c2nnc3ccc(N(C)c4ccccc4)nn23)c1 | inconclusive: 44.7 µM [inhibitor, full curve] | – | – |
| CN(CCc1ccccn1)C(=O)C1CCCN(c2cnn(Cc3ccccc3)c(=O)c2)C1 (stereo unspecified) | inconclusive: 44.7 µM [inhibitor, partial curve, poor fit] | – | – |
| COCCNC(=O)CCCN1C(=O)COc2ccc(C(=O)COc3ccc(C(C)(C)C)cc3)cc21 | inconclusive: 20 µM [inhibitor, full curve, poor fit] | – | – |
| COC(=O)CNC(=O)c1cc(-c2ccc(Cl)cc2Cl)c2cnn(C)c2n1 | inconclusive: 39.8 µM [inhibitor, partial curve, poor fit] | – | – |
| Cc1cccc(-c2ccc3c(c2)C(=O)N2CC[C@H](NC(=O)c4cccnc4)C[C@H]2C(=O)N3)c1C | – | inactive: -19.5% | – |
| CCn1ccc2sc(C)c(C(=O)N3CCC(Cc4ccccc4)CC3)c2c1=O | inconclusive: 50.1 µM [inhibitor, partial curve, poor fit] | – | – |
| Cc1noc(-c2ccc(N3CCN(C/C=C/c4ccccc4)CC3)nc2)n1 | inconclusive: 50.1 µM [inhibitor, partial curve, poor fit] | – | – |
| COc1ccc(CN2CCC3(CC2)CC(=O)c2ccc(Cl)cc2O3)cc1 | inconclusive: 50.1 µM [inhibitor, partial curve, poor fit] | – | – |
| Cn1cnc2cc(C(=O)N3CCC4(CC3)OCCCC4O)ccc21 (stereo unspecified) | – | – | inactive |
| CCN1c2cc(C(=O)Nc3ccc(Cl)cc3C)ccc2C(=O)N2CCCCCC21 (stereo unspecified) | inconclusive: 28.2 µM [inhibitor, full curve, poor fit] | – | – |
| O=C(NC1CCCN(c2ccc3nnc(-c4ccccc4)n3n2)C1)c1ccncc1 (stereo unspecified) | inconclusive: 44.7 µM [inhibitor, partial curve, poor fit] | – | – |
| COc1ccc(CCNC(=O)C2(c3ccc(OC)cc3)CCOCC2)cc1 | inconclusive: 50.1 µM [inhibitor, partial curve, poor fit] | – | – |
| CC(C)NC(=O)C1COC2(CCN(C(=O)c3ccc(Cl)cc3)CC2)N1C(=O)c1cccc(F)c1 (stereo unspecified) | inconclusive: 50.1 µM [inhibitor, partial curve, poor fit] | – | – |
| Cn1cc(-c2cc(=O)c3ccnc(Nc4ccc5[nH]ccc5c4)c3o2)cn1 | inconclusive: 25.1 µM [inhibitor, full curve, poor fit] | – | – |
| COc1ccc2c(c1)CN(C1CC1)C(=O)CCN2C(=O)C1CCC1 | inconclusive: 70.8 µM [inhibitor, partial curve, poor fit] | – | – |
| Cc1ccccc1Cc1c(C)nc2c(C(=O)NCCc3noc(-c4ccncc4)n3)cnn2c1C | inconclusive: 50.1 µM [inhibitor, partial curve, poor fit] | – | – |
| Cc1ccccc1NC(=O)c1cnc2c(c1)N(Cc1ccccc1)CCC2 | inconclusive: 56.2 µM [inhibitor, partial curve, poor fit] | – | – |

| SMILES | Potency | activity change, negative = cytotoxicity | outcome |
| --- | --- | --- | --- |
| O=[N+]([O-])c1cccc(-c2noc([C@@H]3Cc4nc[nH]c4CN3CC3CCCCC3)n2)c1 | active: 70.8 µM | – | – |
| CC(=O)N1CCN(C(=O)C2CCc3nnc(CNC(=O)NC(C)(C)C)n32)CC1 (stereo unspecified) | – | inactive: -9.8% [at 138 µM] | – |
| CC(C)(Oc1nn(CCOc2ccccc2)c2ccccc12)C(=O)Nc1cccnc1 | inconclusive: 44.7 µM [inhibitor, partial curve, poor fit] | – | – |
| Fc1ccc(CNc2cc3c(cn2)CN(Cc2ccncc2)CCN3)cc1 | – | inactive: -43.2% [at 138 µM] | – |
| O=C(Nc1ccc([C@H]2OCC(=O)N(Cc3ccc(F)cc3)[C@@H]2CO)cc1)c1ccccc1 | inconclusive: 70.8 µM [inhibitor, partial curve, poor fit] | – | – |
| NC(=O)COC[C@@H]1CN(CC2CCCCC2)C[C@H]1c1ccncc1 | inconclusive: 79.4 µM [inhibitor, partial curve, poor fit] | – | – |
| CN(C)C(C(=O)N1CCC(F)(F)CC1)c1ccccc1F (stereo unspecified) | – | inactive: -1.72% | – |
| O=C(c1cccc(F)c1)N1CCOC[C@H](Oc2ccc(C(F)(F)F)cc2)C1 | inconclusive: 89.1 µM [inhibitor, partial curve, poor fit] | – | – |
| Cc1nn(-c2ccccc2)c2c1C(C(C)C)N(C1CCN(C(=O)Nc3ccccc3)CC1)C2=O (stereo unspecified) | – | inactive: -6.39% | – |
| Cc1ccc(C(=O)Nc2cc(-c3ccncc3)nn2-c2ccccc2)cc1 | inconclusive: 44.7 µM [inhibitor, partial curve, poor fit] | – | – |
| COc1ccc(-c2nn(-c3ccccc3C)cc2CN2CCCC(C)(O)C2)cc1F (stereo unspecified) | – | inactive: -0.125% | – |
| CC1=C[C@@H](CNC(=O)C2CCC2)[C@H](C(C)C)C[C@H]1Cc1nc2ccc(F)cc2[nH]1 | active: 39.8 µM | – | – |
| O=C1NC2(CCCN([S+](=O)([O-])c3ccccc3)C2)Oc2ccccc21 (stereo unspecified) | inconclusive: 50.1 µM [inhibitor, partial curve, poor fit] | – | – |
| c1ccc(CNc2nc(-c3ccccc3)no2)cc1 | inconclusive: 50.1 µM [inhibitor, partial curve, poor fit] | – | – |
| CSCCNC(=O)C1CCN(c2nccc(Nc3ccccc3Cl)n2)CC1 | active: 35.5 µM | – | – |
| COc1ccc2c(C)c(C(=O)N3CCC(c4nc(C(C)C)no4)CC3)oc2c1 | inconclusive: 39.8 µM [inhibitor, partial curve] | – | – |
| O=C1Nc2ccc(-c3ccccc3F)cc2C(=O)N2C[C@@H](NS(=O)(=O)c3ccc(F)cc3)C[C@@H]12 | inconclusive: 89.1 µM [inhibitor, single point] | – | – |
| CCCN(CC1CCOC1)C(=O)NCC(C)C (stereo unspecified) | – | – | inactive |
| Cc1noc([C@@H]2C[C@H](NC(=O)Nc3cccc(F)c3)CN2C)n1 | inconclusive: 126 µM [inhibitor, partial curve, poor fit] | – | – |
| COc1ccc(NC(=O)N2CCCC(Cc3noc(-c4cccnc4)n3)C2)cc1 (stereo unspecified) | inconclusive: 35.5 µM [inhibitor, partial curve, poor fit] | – | – |
| Cc1nc2c(c(-c3ccc(Cl)cc3)n1)CCN(C(=O)Nc1ccc(Cl)cc1)CC2 | inconclusive: 44.7 µM [inhibitor, partial curve, poor fit] | – | – |

| SMILES | Potency | activity change, negative = cytotoxicity | outcome |
| --- | --- | --- | --- |
| CC(=O)N1CCC(C2CCN(S(=O)(=O)c3ccccc3Cl)C2)CC1 (stereo unspecified) | inconclusive: 50.1 µM [inhibitor, partial curve, poor fit] | – | – |
| Cc1ccc(OCc2nc(C3CCCCN3C(=O)NCc3ccc(F)cc3)no2)cc1 (stereo unspecified) | inconclusive: 44.7 µM [inhibitor, partial curve, poor fit] | – | – |
| COc1cc(-c2cnc3n[nH]c(-c4ccccc4)c3n2)ccn1 | inconclusive: 50.1 µM [inhibitor, partial curve, poor fit] | – | – |
| CN(C)CCNC(=O)c1cnc2c(c1)N(C(=O)Cc1cn(C)c3ccccc13)CCC2 | inconclusive: 112 µM [inhibitor, single point] | – | – |
| COc1ccccc1N1CCN(C(=O)Cn2cccc2-c2nc(-c3ccc(F)cc3)no2)CC1 | inconclusive: 31.6 µM [inhibitor, partial curve] | – | – |
| Cc1csc(NC(=O)c2nc3c(o2)CCN(Cc2ccc(C#N)cc2)CC3)n1 | inconclusive: 31.6 µM [inhibitor, partial curve, poor fit] | – | – |
| O=C(NC1CCCCC1)C1CN(C(=O)c2cccc(C(F)(F)F)c2)CC12CCOCC2 (stereo unspecified) | – | inactive: -6.21% | – |
| Cc1nnc2ccc(N3CCN(C(=O)c4ccc(C(F)(F)F)cc4)CC3)nn12 | inconclusive: 56.2 µM [inhibitor, partial curve, poor fit] | – | – |
| O=C(NC1CC1)[C@@H]1C[C@H](Oc2ccccc2)CN1C(=O)c1n[nH]c(=O)c2ccccc12 | – | inactive: 2.29% | – |
| Cc1ccc(C(=O)N2CCN(c3cc(C(F)(F)F)ncn3)CC2)cc1F | inconclusive: 44.7 µM [inhibitor, partial curve, poor fit] | – | – |
| Cc1ccc(C(C)NC(=O)CNC23CC4CC(CC(C4)C2)C3)cc1 (stereo unspecified) | inconclusive: 50.1 µM [inhibitor, partial curve, poor fit] | – | – |
| Cc1cnc(-c2ccncc2)n1C1CCN(C(=O)CCCc2ccccc2)C1 (stereo unspecified) | – | inactive: -28.7% | – |
| Cc1ccccc1-c1cc(C(=O)NCc2cccnc2)c2c(c1)ncn2C | inconclusive: 89.1 µM [inhibitor, partial curve] | – | – |
| O[C@@H]1C[C@@H](c2nc(-c3ccc4c(c3)OCO4)no2)N(Cc2ccccn2)C1 | – | inactive: -16.8% [at 174 µM] | – |
| COc1ccc(C2(C(=O)N(C)Cc3ccc(OC(F)(F)F)cc3)CCOCC2)cc1 | inconclusive: 50.1 µM [inhibitor, partial curve, poor fit] | – | – |
| Cc1ccc(C(=O)N2CCC(n3cc(-c4nc(C(C)C)no4)nn3)CC2)s1 | – | inactive: -20.5% | – |
| Cc1cccc(C(=O)Nc2cccc(C3OC(=O)N(Cc4ccccc4)C3C(=O)NCC(C)C)c2)c1 (stereo unspecified) | inconclusive: 50.1 µM [inhibitor, partial curve, poor fit] | – | – |
| O=C(c1cccc(Cl)c1)N1CCN(Cc2ccccc2-c2cccnc2)CC1 | inconclusive: 44.7 µM [inhibitor, partial curve, poor fit] | – | – |
| COc1cc(F)ccc1-c1cnc2n[nH]c(-c3sccc3C)c2n1 | inconclusive: 56.2 µM [inhibitor, partial curve, poor fit] | – | – |
